In patent US20250188179A1 (ADAGENE PTE, published 2025):

What was measured:
[1] = target: T1, full-length human CD137 with C-terminal 3xMyc tag displayed on yeast cells (human, UniProt Q07011 24-255); assay: KD divided by KD of parental antibody; FACS on yeast hCD137; data batch 4
T1 construct: whole, on cells; not used; also called hCD137; not shown: C-terminal 3xMyc tag

[2] = target: T1, full-length human CD137 with C-terminal …; assay: FACS titration on yeast displaying full-length hCD137-3xMyc, no protease; data batch 4
[3] = target: CD137 on Jurkat-CD137-NFkB-luciferase reporter cells; assay: cell-based or functional assay
[4] = target: human CD137 on activated human T cells (human, UniProt Q07011 24-255); assay: cell-based or functional assay
[5] = target: T2, hCD137 (antigen of the ELISA and FACS assays of Example 2) (human, UniProt Q07011 24-186, limits assumed); assay: ELISA EC50 relative to parental antibody TY24118
T2 construct: also called human CD137

[6] = target: T2, hCD137 (antigen of the ELISA and FACS …); assay: FACS-based assay on hCD137
[7] = target: T2, hCD137 (antigen of the ELISA and FACS …); assay: FACS KD relative to parental antibody TY24118
[8] = target: T2, hCD137 (antigen of the ELISA and FACS …); assay: ELISA on hCD137
[9] = target: T1, full-length human CD137 with C-terminal …; assay: KD divided by KD of parental antibody (TY21242 or TY23310); FACS on yeast hCD137; data batch 4

B1: TY23310 (antibody, human IgG1, kappa)
heavy: EVQLVESGGGLVQPGGSLRLSCAASGFSLSTGGVGVGWIRQAPGKGLEWLALIDWADDKYYSPSLKSRLTISRDNSKNTLYLQLNSLRAEDTAVYYCARGGSDTVIGDWFAYWGQGTLVTVSS[in this place human IgG1 constant region]
light: DIQLTQSPSSLSASVGDRVTITCRASQSIGSYLAWYQQKPGKAPKLLIYDASNLETGVPSRFSGSGSGTDFTLTISSLQPEDFATYYCQQGYYLWTFGQGTKVEIKRTVAAPSVFIFPPSDEQLKSGTASVVCLLNNFYPREAKVQWKVDNALQSGNSQESVTEQDSKDSTYSLSSTLTLSKADYEKHKVYACEVTHQGLSSPVTKSFNRGEC
notes: Not masked; WT hIgG1 Fc
Masking efficiency [1]: 1 fold | Kd [2]: 0.176 nM | EC50 (nM), Jurkat-CD137-NFkB-luciferase reporter, in the presence of CHO-K1-hFcγRIIb cells as cross-linker [3]: 0.27 nM | EC50 (nM), IL-2 secretion of SEA-stimulated human PBMC, Donor #102 [4]: 0.047 nM

B2: TY24118 (antibody, human IgG1, kappa)
heavy: EVQLVESGGGLVQPGGSLRLSCAASGFSLSTGGVGVGWIRQAPGKGLEWLALIDWADDKYYSPSLKSRLTISRDNSKNTLYLQLNSLRAEDTAVYYCARGGSDTVIGDWFAYWGQGTLVTVSS[in this place human IgG1 constant region with changes]
light: DIQLTQSPSSLSASVGDRVTITCRASQSIGSYLAWYQQKPGKAPKLLIYDASNLETGVPSRFSGSGSGTDFTLTISSLQPEDFATYYCQQGYYLWTFGQGTKVEIKRTVAAPSVFIFPPSDEQLKSGTASVVCLLNNFYPREAKVQWKVDNALQSGNSQESVTEQDSKDSTYSLSSTLTLSKADYEKHKVYACEVTHQGLSSPVTKSFNRGEC
Masking efficiency [5]: 1 fold | Kd [6]: 0.115 nM | Masking efficiency [7]: 1 fold | EC50 [8]: 0.275 nM

B3: TY25372 (antibody, human IgG1, kappa)
heavy: EVQLVESGGGLVQPGGSLRLSCAASGFSLSTGGVGVGWIRQAPGKGLEWLALIDWADDKYYSPSLKSRLTISRDNSKNTLYLQLNSLRAEDTAVYYCARGGSDTVIGDWFAYWGQGTLVTVSS[in this place human IgG1 constant region with changes]
light: EVGSYTDNYDYCPRLRRKCYHGGGPLGLAGGGSDIQLTQSPSSLSASVGDRVTITCRASQSIGSYLAWYQQKPGKAPKLLIYDASNLETGVPSRFSGSGSGTDFTLTISSLQPEDFATYYCQQGYYLWTFGQGTKVEIKRTVAAPSVFIFPPSDEQLKSGTASVVCLLNNFYPREAKVQWKVDNALQSGNSQESVTEQDSKDSTYSLSSTLTLSKADYEKHKVYACEVTHQGLSSPVTKSFNRGEC
notes: Masked, uncleaved; hIgG1 S267E/L328F
Kd [2]: 70.9 nM | Masking efficiency [9]: 402 fold

B4: TY25369 (antibody, human IgG1, kappa)
heavy: EVQLVESGGGLVQPGGSLRLSCAASGFSLSTGGVGVGWIRQAPGKGLEWLALIDWADDKYYSPSLKSRLTISRDNSKNTLYLQLNSLRAEDTAVYYCARGGSDTVIGDWFAYWGQGTLVTVSS[in this place human IgG1 constant region with changes]
light: EVGSYPTDLDACADAPNHCHFSGRGGGPLGLAGGSDIQLTQSPSSLSASVGDRVTITCRASQSIGSYLAWYQQKPGKAPKLLIYDASNLETGVPSRFSGSGSGTDFTLTISSLQPEDFATYYCQQGYYLWTFGQGTKVEIKRTVAAPSVFIFPPSDEQLKSGTASVVCLLNNFYPREAKVQWKVDNALQSGNSQESVTEQDSKDSTYSLSSTLTLSKADYEKHKVYACEVTHQGLSSPVTKSFNRGEC
notes: as for B3
Kd [2]: 178 nM | Masking efficiency [9]: 1010 fold
